Article PMC4336329 (PLoS ONE, 2015)
The whole screen tested about 310,000 compounds, of which about 2,200 (0.71%) showed an effect of 50% or more. The effect is printed as a negative number. The list shows a part of the results.

target: human ether-à-go-go-related gene (hERG) potassium channel (human, UniProt Q12809); test: primary screen, population patch clamp on CHO cells stably expressing hERG
Sequence (Q12809 whole entry, looked up): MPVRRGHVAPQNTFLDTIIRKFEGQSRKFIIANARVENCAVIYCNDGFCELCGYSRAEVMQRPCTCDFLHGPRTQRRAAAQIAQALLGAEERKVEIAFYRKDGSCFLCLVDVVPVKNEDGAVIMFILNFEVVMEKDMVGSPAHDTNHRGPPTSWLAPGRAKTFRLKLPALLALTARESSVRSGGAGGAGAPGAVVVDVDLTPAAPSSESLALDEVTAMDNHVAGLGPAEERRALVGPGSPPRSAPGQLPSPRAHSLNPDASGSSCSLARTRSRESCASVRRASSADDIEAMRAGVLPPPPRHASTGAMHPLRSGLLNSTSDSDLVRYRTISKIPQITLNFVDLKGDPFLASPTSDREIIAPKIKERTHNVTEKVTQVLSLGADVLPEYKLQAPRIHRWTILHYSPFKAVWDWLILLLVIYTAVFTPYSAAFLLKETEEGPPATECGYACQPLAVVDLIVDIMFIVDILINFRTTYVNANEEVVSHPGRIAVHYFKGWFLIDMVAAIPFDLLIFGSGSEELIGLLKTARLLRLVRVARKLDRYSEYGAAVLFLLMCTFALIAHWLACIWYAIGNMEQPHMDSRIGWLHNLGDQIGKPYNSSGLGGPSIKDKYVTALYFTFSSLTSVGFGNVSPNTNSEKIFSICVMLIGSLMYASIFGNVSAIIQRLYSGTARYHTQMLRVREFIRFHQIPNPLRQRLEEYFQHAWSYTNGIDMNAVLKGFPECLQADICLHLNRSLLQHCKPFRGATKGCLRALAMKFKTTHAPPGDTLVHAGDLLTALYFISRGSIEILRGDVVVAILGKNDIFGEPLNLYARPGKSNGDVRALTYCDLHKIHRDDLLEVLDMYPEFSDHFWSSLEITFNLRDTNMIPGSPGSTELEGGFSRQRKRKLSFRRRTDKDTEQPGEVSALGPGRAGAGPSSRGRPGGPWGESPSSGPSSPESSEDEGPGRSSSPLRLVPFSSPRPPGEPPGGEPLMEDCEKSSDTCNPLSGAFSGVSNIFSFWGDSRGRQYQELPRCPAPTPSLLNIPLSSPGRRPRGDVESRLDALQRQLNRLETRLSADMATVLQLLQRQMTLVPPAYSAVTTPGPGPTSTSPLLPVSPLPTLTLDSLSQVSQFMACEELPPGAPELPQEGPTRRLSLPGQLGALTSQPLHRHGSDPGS

Row | Compound | hERG current change (%, negative = inhibition) at 1uM [%]
1 | CC(=O)NC(Cc1c[nH]c2ccccc12)C(=O)N1CCc2ccccc2C1 (stereo not drawn) | 6.99
2 | NNC(=O)C1CC1c1ccc(Cl)cc1 (stereo not drawn) | 9.29
3 | C[C@@H](C(=O)NC1CCN(Cc2ccccc2)CC1)N1C(=O)N2CCc3c([nH]c4ccccc34)[C@@]2(C)C1=O | -62.1
4 | O=C(COC(=O)COc1cccc(C(F)(F)F)c1)NC1CCCC1 | 11.8
5 | COc1ccccc1CNC(=O)COc1ccccc1C(=O)c1cnn(-c2ccccc2)c1 | 12.9
6 | CN(C)S(=O)(=O)N1CCN(C(=O)N(c2ccccc2)c2ccccc2)CC1 | 18.3
7 | COCCOC(=O)C1=C(C)Nc2cc(=O)[nH]c(=O)n2C1c1cccc([N+](=O)[O-])c1 (stereo not drawn) | 19.9
8 | Cc1ccc(CN2CCC(c3cc(-c4ccc(Cl)cc4)n[nH]3)CC2)cc1 | -78.1
9 | CC(NC(=O)Nc1ccccc1C(F)(F)F)C1CCCO1 (stereo not drawn) | 18.4
10 | CCOC(=O)c1cccc(N2C(=O)C3C(C2=O)C2C=CC3C23CC3)c1 (stereo not drawn) | 8.16
11 | CCC(C)C(NC(=O)c1ccccc1NC(=O)c1ccccc1)C(=O)N1CCOCC1 (stereo not drawn) | 8.6
12 | O=C(c1ccc(Br)cc1)C12CN3CN(CN(C3)C1)C2 | 27.7
13 | O=C(CSc1nnc2scc(-c3ccc(Cl)cc3)n12)NCc1ccc2c(c1)OCO2 | -0.194
14 | CCCn1nc(C(=O)NNC(=O)c2cccc(S(=O)(=O)NC(C)C)c2)c2ccccc2c1=O | 7.97
15 | COCCn1c(SCC(=O)OCc2ccccc2)nc2c1c(=O)[nH]c(=O)n2C | -0.677
16 | O=C1CCC(C(=O)Nc2cccc(Oc3ccccc3)c2)=NN1 | 8.66
17 | CC(=O)Nc1ccc(C(=O)N/N=C/c2ccccc2OCc2ccccc2)cc1 | 15.9
18 | Cc1ccc(S(=O)(=O)NCCC(=O)NNC(=O)COc2ccc(Br)cc2)cc1C | 5.62
19 | O=C(c1ccc(S(=O)(=O)N2CCCC2)cc1)N1CCN(c2ccccc2F)CC1 | 15.7
20 | O=C(CSc1nnc(-c2ccccc2F)o1)OCc1ccccc1 | 8.82
21 | Cc1ccc(-n2nc3c(c2NC(=O)/C=C\c2ccc4c(c2)OCO4)CSC3)cc1 | 13.5
22 | COC(=O)c1ccccc1NC(=O)CNC(=O)c1ccco1 | 11.6
23 | CC(CCc1ccccc1)NC(=O)CN1CCN(Cc2ccc(Cl)cc2)C1=O (stereo not drawn) | -10.1

Row | Compound | hERG current change (%, negative = inhibition) at 1uM [%]
24 | CC(=O)Nc1cc(C(F)(F)F)ccc1OCC1CCCO1 (stereo not drawn) | -0.903
25 | Cc1ccccc1C(=O)NNC(=O)C1CCN(C(=O)Nc2ccccc2)CC1 | 19.8
26 | Cc1ccccc1Nc1c(-c2ccncc2)nc2ccc(Br)cn12 | 4.55
27 | COC(=O)Cc1n[nH]c(=O)c2ccccc12 | 16
28 | COC(=O)c1ccc(NC(=O)CSCC(=O)OCC(=O)c2ccc(Br)cc2)cc1 | 6.29
29 | COc1ccccc1C(=O)Oc1cc(C)[nH]c(=O)c1[N+](=O)[O-] | 7.66
30 | Cc1cc(C)c(C#N)c(SCc2ccc(F)cc2)n1 | 13.1
31 | Cc1cc(=O)oc2c3c(cc(OCC(=O)NCC4CCC(C(=O)O)CC4)c12)OC(C)(C)CC3 (stereo not drawn) | -7.37
32 | Cc1cc(C)c(C)c(S(=O)(=O)N2CCN(C(=O)c3ccccn3)CC2)c1C | 4.34
33 | CCSc1nnc(NC(=O)COc2cccc3ccccc23)s1 | 19.5
34 | Cc1ccc(OCc2nnc(SCC(=O)Nc3ccc4c(c3)OCCO4)n2Cc2ccco2)cc1 | 12.6
35 | CCc1nc(C)c(C#N)c2cc(OC)c(OC)cc12 | 7.54
36 | CC1CCCN(C(=O)CSc2nnc(-c3cccnc3)n2C2CCCCC2)C1 (stereo not drawn) | 0.137
37 | CCOC(=O)N1CCN(CCC(=O)Nc2cc(C)ccc2OC)CC1.Cl | 1.39
38 | COc1ccc(CCC(=O)NCCc2cnc[nH]2)cc1 | 13.2
39 | O=C(CN1C(=O)NC2(CCCC2)C1=O)N1CCN(S(=O)(=O)c2cccc(C(F)(F)F)c2)CC1 | 9.9
40 | CC1(C)CC(=O)C=C(Nc2cccc(C(F)(F)F)c2)C1 | 5.68
41 | C[C@@H](C(=O)Nc1ccc2ccccc2c1)[C@@H]1C[C@@]1(C)[C@@H](NC(=O)OCc1ccccc1)c1ccccc1 | 14.3
42 | CCCn1c(C)cc(/C=C(\C#N)C(=O)OCC(=O)NC(=O)NCC)c1C | 4.57
43 | CN(Cc1cc2ccccc2[nH]c1=O)S(C)(=O)=O | 7.56
44 | COc1ccccc1N1CCN(C(=O)c2cccc(S(=O)(=O)NCc3cccnc3)c2)CC1 | 10.1
45 | COc1cc(OC)cc(-c2c(-c3cccs3)c3cc(-c4ccc5[nH]ccc5c4)ccc3n2C)c1 | 15.2
